# Results from paper PMC4336329 (PLoS ONE, 2015).
# The whole screen tested about 310,000 compounds, of which about 2,200 (0.71%) showed an effect of 50% or more. Effects have a minus sign here. The list shows a part of the results.
# Biological target: human ether-à-go-go-related gene (hERG) potassium channel (human, UniProt Q12809)
# Assay: primary screen, population patch clamp on CHO cells stably expressing hERG
# Sequence of human ether-à-go-go-related gene (hERG) potassium channel (Q12809 whole entry, looked up): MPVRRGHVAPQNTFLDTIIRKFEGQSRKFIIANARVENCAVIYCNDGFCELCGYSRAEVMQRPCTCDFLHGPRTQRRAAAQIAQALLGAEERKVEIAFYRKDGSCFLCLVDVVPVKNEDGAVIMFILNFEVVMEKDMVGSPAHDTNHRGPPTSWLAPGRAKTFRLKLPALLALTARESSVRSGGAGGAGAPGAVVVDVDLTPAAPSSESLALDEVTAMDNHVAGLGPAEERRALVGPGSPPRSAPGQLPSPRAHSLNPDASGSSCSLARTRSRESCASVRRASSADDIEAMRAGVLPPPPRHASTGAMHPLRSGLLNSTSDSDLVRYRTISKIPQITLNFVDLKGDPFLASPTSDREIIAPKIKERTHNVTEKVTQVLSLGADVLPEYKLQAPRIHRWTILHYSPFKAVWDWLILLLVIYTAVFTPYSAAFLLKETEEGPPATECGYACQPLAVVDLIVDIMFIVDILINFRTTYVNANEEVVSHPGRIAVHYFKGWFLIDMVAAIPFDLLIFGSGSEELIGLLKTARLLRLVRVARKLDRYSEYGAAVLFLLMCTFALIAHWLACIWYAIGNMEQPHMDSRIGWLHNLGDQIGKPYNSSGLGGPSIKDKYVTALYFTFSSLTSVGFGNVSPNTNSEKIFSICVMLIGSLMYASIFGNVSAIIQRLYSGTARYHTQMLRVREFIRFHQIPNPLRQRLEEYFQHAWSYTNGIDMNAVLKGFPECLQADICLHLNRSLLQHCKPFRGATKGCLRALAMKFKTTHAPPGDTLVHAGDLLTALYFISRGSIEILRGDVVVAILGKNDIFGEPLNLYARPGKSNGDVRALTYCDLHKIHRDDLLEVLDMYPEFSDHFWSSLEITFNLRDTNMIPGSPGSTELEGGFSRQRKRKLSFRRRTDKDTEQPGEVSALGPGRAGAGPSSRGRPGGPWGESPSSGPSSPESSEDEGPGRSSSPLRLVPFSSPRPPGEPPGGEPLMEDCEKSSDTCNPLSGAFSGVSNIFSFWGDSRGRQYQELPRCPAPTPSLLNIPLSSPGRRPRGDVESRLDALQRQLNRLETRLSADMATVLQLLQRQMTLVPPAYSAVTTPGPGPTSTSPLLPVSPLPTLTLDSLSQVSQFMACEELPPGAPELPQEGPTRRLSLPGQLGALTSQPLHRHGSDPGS
row,SMILES,"hERG current change (%, negative = inhibition) at 1uM"
1,CCCCn1nc(-c2ccccc2)c2nc3ccccc3nc21,5.38%
2,Cc1ccc(NCc2nnc(SCC(=O)Nc3nnc(C)s3)n2C)cc1,4.75%
3,CCC(C)[C@H]1CNCCN1CCCc1cc(OC)c(OC)c(OC)c1 (some centres unmarked),12.2%
4,Cc1nn(CC(=O)c2ccc(Cl)s2)c(C)c1[N+](=O)[O-],16.1%
5,Cn1c(=O)[nH]c(=O)c2c1nc1n2CCN1Cc1ccccc1,13.3%
6,CC(C)Cn1c(N)c(C(=O)CSc2nc3ccccc3c(=O)n2CCCN2CCOCC2)c(=O)n(C)c1=O,1.66%
7,CC(O)c1nc2ccccc2n1CC(=O)N1CCN(c2ccccc2)CC1 (centres unmarked),15.6%
8,O=C(Nc1cc(S(=O)(=O)N2CCOCC2)ccc1N1CCOCC1)c1ccc(S(=O)(=O)N2CCCCC2)cc1,10.5%
9,CCCOc1ccc(S(=O)(=O)NCCN2CCOCC2)c2ccccc12,9.46%
10,COc1ccc(OC)c(NS(=O)(=O)c2ccc(-c3coc(C)n3)cc2)c1,10.4%
11,Cc1ccc(CCN2CC(C(=O)NCCN3CCOCC3)CC2=O)cc1 (centres unmarked),15%
12,COc1ccc(N(C(=O)c2ccco2)C(C(=O)NC2CCCC2)c2ccco2)cc1OC (centres unmarked),4.57%
13,Cc1ccc(C(=O)N/N=C\C2CC=CCC2)cc1[N+](=O)[O-] (centres unmarked),2.47%
14,Cc1ccc(/C=N/NC(=O)c2nn(C)cc2Cl)cc1,2.39%
15,Cl.O=C(CSc1cccc[n+]1[O-])Nc1ccc(N2CCOCC2)cc1,8.76%
16,O=C(NCCCN1CCOCC1)c1ccc(NS(=O)(=O)c2ccccc2)cc1,7.4%
17,COc1ccc(-n2c3c(c(=O)[nH]c2=O)C(NC(=O)c2ccncc2)(C(F)(F)F)C(=O)N3)cc1 (centres unmarked),2.11%
18,CN(C)c1ccc(P(=O)(OC2CCCCC2)C(O)c2ccncc2)cc1 (centres unmarked),5.73%
19,COc1ccccc1C/C(N)=N/OC(=O)c1cccs1,11%
20,COc1ccc(NC(=O)CCCc2nnc3n(C)c(=O)c4sccc4n23)cc1,13.7%
21,CCOC(=O)[C@H]1[C@H]2COc3ccc(C)cc3[C@@H]2N2C(=O)CN(CC3CCCO3)C(=O)[C@@]12C (some centres unmarked),13.3%
22,CCc1ccccc1NC(=O)CN(C)C(=O)COc1ccc(C)nc1[N+](=O)[O-],0.971%
23,COCCn1ccc(O)c(Cc2ccccc2)c1=O,7.02%

row,SMILES,"hERG current change (%, negative = inhibition) at 1uM"
1,CCN(CC)S(=O)(=O)c1ccc(C(=O)C(C#N)c2ccccn2)cc1 (centres unmarked),19.1%
2,Cc1cnc(C(=O)OCC(=O)N2c3ccccc3NC(=O)C2(C)C)cn1,14.3%
3,O=C(NC1CCCCC1)c1n[nH]c2c1CCCCC2,13.2%
4,Cn1cccc1/C=N/N1CCN(c2ccccn2)CC1,15.8%
5,Cl.c1ccc(CNc2nc(N3CCN(Cc4ccccc4)CC3)nc3ccccc23)cc1,10.4%
6,CC(C)(CNC(=O)c1cccs1)CNC(=O)c1cccs1,12.8%
7,COc1ccccc1NC(=O)C1=C(C)Nc2nnnn2C1c1ccccc1OC (centres unmarked),11.1%
8,COc1ccc2[nH]c(C)c(CCN3C(=O)C4CC=CCC4C3=O)c2c1 (centres unmarked),6.96%
9,COc1ccccc1C(=O)NCC(=O)NCC1(N2CCCCC2)CCCCC1,4.1%
10,Nc1nc(SCc2ccc(Cl)cc2Cl)nc2nc3c(cc12)CCCC3,6.88%
11,CCOc1cc(-n2ncc(C#N)c2N)nc(SC)n1,14.4%
12,O=C(Cc1cccc2ccccc12)Nc1ccccc1,12.9%
13,Cc1cc([N+](=O)[O-])cc2ncccc12,1.61%
14,NC(=O)Cn1c(=O)oc2ccccc21,19.3%
15,O=C(CSC(=S)N1CCOCC1)c1cc(Br)cc(Br)c1O,4.94%
16,O=S(=O)(NCC(c1cccnc1)N1CCN(Cc2ccccc2)CC1)c1ccccc1 (centres unmarked),-52.4%
17,Cc1c(C(=O)[O-])oc2c1C(O)CC(C)(C)C2.[Na+] (centres unmarked),13.2%
18,O=c1oc2ccccc2cc1-c1csc(Cc2nc(-c3ccc(Br)cc3)cs2)n1,9.22%
19,CCOC(=O)c1cnc(SCC(=O)N2CCc3ccccc32)nc1N,9.86%
20,CCOC(=O)CC1CCCCN1Cc1cn(C)nc1-c1ccc2c(c1)OCCO2 (centres unmarked),12.7%
21,CC1CCCC(NC(=O)CCn2c(=S)oc3ccccc32)C1C (centres unmarked),9.85%
22,Cc1occc1C(=O)N/N=C/c1ccc[nH]1,9.76%
23,CCCCN(Cc1ccccc1)C(=O)c1cnc2n(c1=O)CCS2,-0.378%

row,SMILES,"hERG current change (%, negative = inhibition) at 1uM"
1,CN1CCC(NC(=O)c2cccc(Oc3ccccc3)c2)CC1,11.7%
2,Cc1ccc(C(=O)CSc2ncnc3sc4c(c23)CCCC4)cc1,1.97%
3,Cc1cc(NC(=O)C(C)C)ncc1NC(=O)Cc1ccccc1,13.3%
4,O=S1(=O)CCN(Cc2ccccc2C(F)(F)F)CC1,7.79%
5,COCCCNC(=O)c1cc2c(-c3cccc(OC)c3)nn(C)c2s1,16.6%
6,CSc1cccc(NC(=O)CSc2nc3ccccc3o2)c1,11.8%
7,COc1cc(OC)c(N(C)S(=O)(=O)c2cccc(C(=O)OCC(=O)NCc3ccco3)c2)cc1Cl,8.1%
8,CCN(CCn1cccn1)C(=O)CC1C(=O)NCCN1CC1CCCCC1 (centres unmarked),17.4%
9,CC(C)Oc1ccc(C(=O)OC(C)C(=O)NC2CCCCC2C)cc1 (centres unmarked),7.76%
10,COc1ccc(C2CC(=O)N(C)c3ccccc3S2)cc1 (centres unmarked),2.99%
11,COC(=O)N1CCN(c2ccc(OC)cc2)CC1,0.43%
12,O=C(N/N=C/c1cc(Cl)cc(Cl)c1O)c1ccncc1,0.643%
13,O=c1c2ccccc2nc2oc3ccccc3n12,14.3%
14,Cc1ccc2nc(C)cc(C(=O)N3CCCC(N4CCN(c5ccccc5C)CC4)C3)c2c1 (centres unmarked),-14.5%
15,O=C(c1ccc2c(c1)OCO2)C1CCCN(Cc2cc(F)ccc2-n2cccn2)C1 (centres unmarked),-78.2%
16,O=C(COc1ccccc1)NCC(=O)N1CCCCCC1,12%
17,CCOC(=O)C1=C(COC(=O)/C=C/c2ccccc2F)NC(=O)NC1C (centres unmarked),10.2%
18,COCCn1c(SCC(=O)NCc2ccc(F)cc2)nc2ccccc21,2.2%
19,O=C(Nc1ccc(N2CCCCC2)c(Cl)c1)c1cccnc1,4.81%
20,CCOC(=O)C1CCN(C(=O)c2cc(S(=O)(=O)N3CCOCC3)c(Cl)cc2Cl)CC1,-7.83%
21,CCOC(=O)c1c(CN2CCCCC2)n(C)c2ccc(OC)c(S(=O)(=O)c3ccccc3)c12,-6.01%
22,COc1cccc(NC(=O)COC(=O)c2ccco2)c1,7.17%
23,CC1c2cc3c(cc2CCN1C(=O)c1cccc(Cl)c1)OCCCO3 (centres unmarked),14.3%

row,SMILES,"hERG current change (%, negative = inhibition) at 1uM"
1,O=C1/C(=C\c2ccco2)SC(=S)N1Cc1ccccc1,16.3%
2,Cc1nc(NC(=O)/C=C/c2ccccc2)n[nH]1,13.6%
3,Cc1ccc(CNC(=O)c2ccc(CS(=O)Cc3cccc(Cl)c3)o2)cc1 (centres unmarked),8.16%
4,COc1cc(C(=O)CSc2nccn2C)cc(OC)c1OC,19.3%
5,CCOc1ccc(C(=O)NCC(=O)N2CCc3ccccc3C2)cc1OCC,4.03%
6,COc1ccccc1/C=C/C(=O)NCC(=O)N/N=C/c1ccc(C)o1,5.98%
7,Cc1ccc(S(=O)(=O)N2CCC(=O)N(C(COCc3cccc(C)c3)C(C)C)CC2)cc1 (centres unmarked),0.649%
8,S=C(NCc1ccco1)Nc1ccc(Oc2ccc(Cl)cc2)cc1,5.63%
9,COc1cc(S(=O)(=O)NCC2COCCO2)ccc1-n1cnnn1 (centres unmarked),-3.1%
10,COc1ccc(-c2oc3ccc(-c4ccc5c(c4)OCO5)cc3c2-c2ccc(OC)nc2)cc1,12.6%
11,Cc1ccc(-c2nnc(-n3nnc4ccccc43)c3ccccc23)cc1,21.1%
12,Cc1cc(C)nc(N2CCCC(C(=O)NC3CC3)C2)n1 (centres unmarked),2.5%
13,Cc1cccc(OCc2nnc(SCc3nc4cc(C(F)(F)F)ccc4c(=O)[nH]3)o2)c1,11.7%
14,COc1cccc(-n2cc(CN(C)Cc3nc(Cc4cccc(F)c4)no3)cn2)c1,10.8%
15,Cc1cccc(CSC(=N)N)c1,9.48%
16,Cc1ccc(SCC(=O)c2ccc(CC(=O)O)s2)cc1,11.9%
17,CS(=O)(=O)N(CC(=O)Nc1ccccc1C(=O)N1CCOCC1)c1cccc(F)c1,3.16%
18,Cl.NCCC1CCCC(CCN)N1 (centres unmarked),8.26%
19,Cc1ccc(NCC(=O)Nc2ccc(Br)cc2)cc1F,6.39%
20,COc1ccc(C(=O)C2CCCN(C(=O)c3ccc4nccnc4c3)C2)c(C)c1 (centres unmarked),23.4%
21,CCCCOCCCNC(=O)C1c2ccccc2Oc2ccccc21,12.9%
22,O=C(COc1ccc(Br)cc1Br)NC(=S)Nc1cccc(CO)c1,5.94%
23,COc1ccc(CNC(=O)NC2CCCCC2)cc1,6.71%
